{
  "source": "a compilation of properties of binary mixtures (doi:10.1039/b303735e)",
  "assay": "xn = mol fraction of the nth substance listed",
  "details": "298.15 K, 101.3 kPa",
  "note": "The densities may have been worked out from excess volumes.",
  "data": [
    {"molecule": "ClCCl", "note": "+ CCCC[n+]1ccn(C)c1.F[B-](F)(F)F", "values": [
      {"measurement": "mass density", "setting": "x1 = 0.199", "value": 1221.3, "unit": "kg/m3"},
      {"measurement": "mass density", "setting": "x1 = 0.2854", "value": 1226.6, "unit": "kg/m3"},
      {"measurement": "mass density", "setting": "x1 = 0.3985", "value": 1235.5, "unit": "kg/m3"},
      {"measurement": "mass density", "setting": "x1 = 0.5452", "value": 1251, "unit": "kg/m3"},
      {"measurement": "mass density", "setting": "x1 = 0.5958", "value": 1258.2, "unit": "kg/m3"},
      {"measurement": "mass density", "setting": "x1 = 0.6471", "value": 1265.2, "unit": "kg/m3"},
      {"measurement": "mass density", "setting": "x1 = 0.8019", "value": 1288.3, "unit": "kg/m3"},
      {"measurement": "mass density", "setting": "x1 = 0.9015", "value": 1303.9, "unit": "kg/m3"},
      {"measurement": "mass density", "setting": "x1 = 0.9477", "value": 1309.1, "unit": "kg/m3"},
      {"measurement": "mass density", "setting": "x1 = 1", "value": 1318.2, "unit": "kg/m3"}
    ]},
    {"molecule": "CCCC[n+]1ccn(C)c1.F[B-](F)(F)F", "note": "+ CCC(C)=O", "values": [
      {"measurement": "mass density", "setting": "x2 = 0", "value": 1211, "unit": "kg/m3"}
    ]},
    {"molecule": "CCC(C)=O", "note": "+ CCCC[n+]1ccn(C)c1.F[B-](F)(F)F", "values": [
      {"measurement": "mass density", "setting": "x1 = 0.2004", "value": 1168.5, "unit": "kg/m3"},
      {"measurement": "mass density", "setting": "x1 = 0.3969", "value": 1118.2, "unit": "kg/m3"},
      {"measurement": "mass density", "setting": "x1 = 0.4495", "value": 1102.8, "unit": "kg/m3"},
      {"measurement": "mass density", "setting": "x1 = 0.5", "value": 1086.8, "unit": "kg/m3"},
      {"measurement": "mass density", "setting": "x1 = 0.5521", "value": 1068.8, "unit": "kg/m3"},
      {"measurement": "mass density", "setting": "x1 = 0.6062", "value": 1048.1, "unit": "kg/m3"},
      {"measurement": "mass density", "setting": "x1 = 0.6545", "value": 1027.8, "unit": "kg/m3"},
      {"measurement": "mass density", "setting": "x1 = 0.8137", "value": 945.1, "unit": "kg/m3"},
      {"measurement": "mass density", "setting": "x1 = 0.8974", "value": 888.6, "unit": "kg/m3"},
      {"measurement": "mass density", "setting": "x1 = 0.9502", "value": 846.5, "unit": "kg/m3"},
      {"measurement": "mass density", "setting": "x1 = 1", "value": 799.9, "unit": "kg/m3"}
    ]},
    {"molecule": "CCCC[n+]1ccn(C)c1.F[B-](F)(F)F", "note": "+ CC#N", "values": [
      {"measurement": "mass density", "setting": "x2 = 0", "value": 1211, "unit": "kg/m3"},
      {"measurement": "mass density", "setting": "x2 = 0.0982", "value": 1198.3, "unit": "kg/m3"},
      {"measurement": "mass density", "setting": "x2 = 0.2265", "value": 1178.9, "unit": "kg/m3"},
      {"measurement": "mass density", "setting": "x2 = 0.3047", "value": 1164.3, "unit": "kg/m3"},
      {"measurement": "mass density", "setting": "x2 = 0.4554", "value": 1132.5, "unit": "kg/m3"},
      {"measurement": "mass density", "setting": "x2 = 0.5059", "value": 1119.3, "unit": "kg/m3"},
      {"measurement": "mass density", "setting": "x2 = 0.5469", "value": 1107.3, "unit": "kg/m3"},
      {"measurement": "mass density", "setting": "x2 = 0.6005", "value": 1090.1, "unit": "kg/m3"},
      {"measurement": "mass density", "setting": "x2 = 0.6441", "value": 1074.4, "unit": "kg/m3"},
      {"measurement": "mass density", "setting": "x2 = 0.6973", "value": 1052.2, "unit": "kg/m3"},
      {"measurement": "mass density", "setting": "x2 = 0.9513", "value": 851.6, "unit": "kg/m3"}
    ]},
    {"molecule": "CC#N", "note": "+ CCCC[n+]1ccn(C)c1.F[B-](F)(F)F", "values": [
      {"measurement": "mass density", "setting": "x1 = 1", "value": 776.7, "unit": "kg/m3"}
    ]},
    {"molecule": "CCCC[n+]1ccn(C)c1.F[B-](F)(F)F", "note": "+ CN(C)C=O", "values": [
      {"measurement": "mass density", "setting": "x2 = 0", "value": 1211, "unit": "kg/m3"},
      {"measurement": "mass density", "setting": "x2 = 0.2041", "value": 1187.7, "unit": "kg/m3"},
      {"measurement": "mass density", "setting": "x2 = 0.3024", "value": 1174.6, "unit": "kg/m3"},
      {"measurement": "mass density", "setting": "x2 = 0.4061", "value": 1158.1, "unit": "kg/m3"},
      {"measurement": "mass density", "setting": "x2 = 0.4408", "value": 1151.9, "unit": "kg/m3"},
      {"measurement": "mass density", "setting": "x2 = 0.5052", "value": 1139.6, "unit": "kg/m3"},
      {"measurement": "mass density", "setting": "x2 = 0.5459", "value": 1130.7, "unit": "kg/m3"},
      {"measurement": "mass density", "setting": "x2 = 0.6014", "value": 1117.6, "unit": "kg/m3"},
      {"measurement": "mass density", "setting": "x2 = 0.665", "value": 1100.7, "unit": "kg/m3"},
      {"measurement": "mass density", "setting": "x2 = 0.701", "value": 1090, "unit": "kg/m3"},
      {"measurement": "mass density", "setting": "x2 = 0.8008", "value": 1055, "unit": "kg/m3"},
      {"measurement": "mass density", "setting": "x2 = 0.9005", "value": 1009.2, "unit": "kg/m3"},
      {"measurement": "mass density", "setting": "x2 = 0.947", "value": 982.4, "unit": "kg/m3"}
    ]}
  ]
}
